± gives the standard deviation of the averaged measurements. Some of the results follow.

The experiment relates to PfAP2-G AP2 domain (GST-tagged). As to the kind of experiment: gcPBM binding intensity (ln(normalized median fluorescence intensity)); higher = stronger DNA binding. A digest of the protocol: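 DNA-binding domains from P. falciparum, fused to GST and produced in E. coli, were put on an Agilent 4 × 180k double-stranded probe array for 1 h in 1× PBS holding 1% milk, 0.2 mg/ml BSA, 0.5% salmon testes DNA and 0.03% Triton X-100. Probes were primer-extended, 36 bp long and drawn from intergenic genomic regions, with negative controls included. After Alexa488 anti-GST antibody detection and a 488 nm scan, binding intensity was set as the highest Masliner-normalised natural-log median intensity across replicate spots of either probe orientation.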
For the sequence “AGAAGTGTAAAAGTTACACACACAAACTTGTCATTT [CACACA_site4613]”, the “gcPBM binding intensity (ln)” value was determined as 9.955 ± 0.007.

Turning to “CCCAGGTGCTCGTAACGTACTTACATCAAATATTAT [XGTACX_site4617]”, the “gcPBM binding intensity (ln)” value came to 11.2 ± 0.73.

For the sequence “TAACATTACTCTTAACTCTTTTGGATACCAACTTAT [XGTACX_negctrl_site82]”, the “gcPBM binding intensity (ln)” value was 10.3 ± 0.29.

For the sequence “AAATATTTATAAATTGCACACAAATAATAACATTAT [CACACA_site8737]”, the “gcPBM binding intensity (ln)” value was found to be 9.925 ± 0.064.

For the sequence “ATAATAATATATACATGTACATATATATATATATAT [XGTACX_site3455]”, the “gcPBM binding intensity (ln)” value was determined as 11 ± 0.52.

In the case of “AAGAAAAAAAAAATTACACACTGCGCACATACACAA [CACACA_site6721]”, the “gcPBM binding intensity (ln)” value is 10.39 ± 0.099.

Take “AGTAACTAATTAAATGCATGTCGATATATATTATAT [TGCATGCA_site1038]”: the “gcPBM binding intensity (ln)” value stood at 10.1 ± 0.23.

“GTGTATATGTATATATGTACATAAATTTTTTTTTTT [XGTACX_site7083]”: the “gcPBM binding intensity (ln)” value came to 11.1 ± 0.62.

Take “ACTTATATAAAACATTAACACACAAAGAAAAAAAAT [CACACA_site8529]”: the “gcPBM binding intensity (ln)” value was 10.2 ± 0.33.

Take “GATACACCAAATAACTGTACGCACGTGTAATATTAA [XGTACX_site3441]”: the “gcPBM binding intensity (ln)” value was found to be 11.6 ± 0.83.

Turning to “CATGTTCATCAGAACGCACACATAATGGTTTACTTA [CACACA_site898]”, the “gcPBM binding intensity (ln)” value was 10.24 ± 0.028.

For the sequence “TATATATATATATATACACACATATATACCTATATA [CACACA_site6085]”, the “gcPBM binding intensity (ln)” value is 10 ± 0.28.

For the sequence “AAAAAAAAGTTAAGCACACACATGAATAAATAATAC [CACACA_site840]”, the “gcPBM binding intensity (ln)” value came out at 10.2 ± 0.15.

Consider “TTAACCGGTTTATGGGTGCACATTCTTCTTAAATAA [GTGCAC_site9928]”, for which the “gcPBM binding intensity (ln)” value amounted to 10.5 ± 0.34.

As to “CCTAGAAAAGTATATACACACGCGCAAAATAAAATT [CACACA_site1413]”, the “gcPBM binding intensity (ln)” value stood at 10.4 ± 0.28.

As to “CATTTAACATAAATTAAACACACAATATAATACATT [CACACA_site8333]”, the “gcPBM binding intensity (ln)” value was found to be 9.995 ± 0.007.

As to “AAAGATAAAATATTATGTACATATATATATATATAT [XGTACX_site5079]”, the “gcPBM binding intensity (ln)” value came to 11.1 ± 0.56.

Consider “TGTATAAAAGTTTATACACACATTTGATATATTTCA [CACACA_site6606]”, for which the “gcPBM binding intensity (ln)” value stood at 9.79 ± 0.014.

Consider “TATAAAAAAAACAAAAAAAAAAAAAAACAAAAAAAA [TGCATGCA_negctrl_site514]”, for which the “gcPBM binding intensity (ln)” value worked out at 9.76 ± 0.12.

“TTTTTTTGTTGTTGTTGTACGATATTTTCCTTATCA [XGTACX_site2375]”: the “gcPBM binding intensity (ln)” value was determined as 11.3 ± 0.77.

As for “GGGAATATAAGTACACGATAATATGTGATAAGGTCT [CACACA_negctrl_site1502]”, the “gcPBM binding intensity (ln)” value came out at 11.5 ± 1.

As to “TTTTATTTTTATTATACACACGCTTAATAAATGCAT [CACACA_site1751]”, the “gcPBM binding intensity (ln)” value is 10.03 ± 0.064.

Turning to “ATTAAATACATTAACACACACACAAATATATACATA [CACACA_site2881]”, the “gcPBM binding intensity (ln)” value was found to be 10.1 ± 0.19.

Turning to “AATAATAATACTAATCGTACGCATATTTTTCAAACC [XGTACX_site8055]”, the “gcPBM binding intensity (ln)” value is 11.3 ± 0.76.

As for “TTTATAAAAATGAACACACACATATAAATATAAATA [CACACA_site7607]”, the “gcPBM binding intensity (ln)” value amounted to 10.1 ± 0.16.

Turning to “TTTTAAATATGAACATGTACATGTAAATTTACATGT [XGTACX_site4573]”, the “gcPBM binding intensity (ln)” value is 11.2 ± 0.76.

As to “AATAATATATTTAGGGGTACATAATAATATATTTTA [XGTACX_site8366]”, the “gcPBM binding intensity (ln)” value came out at 11.6 ± 1.1.

For the sequence “AAAAATAGAATAAATACACACCCGTGTAACGGATTT [CACACA_site3372]”, the “gcPBM binding intensity (ln)” value turned out to be 9.63 ± 0.29.

In the case of “TAAACATTTGGCTGATGTACTTGCTACCTTAAATCA [XGTACX_site5514]”, the “gcPBM binding intensity (ln)” value came out at 11.1 ± 0.59.

Consider “ATTTTTGTGTATTAATGTACTTTATGCATATTTGAC [XGTACX_site3353]”, for which the “gcPBM binding intensity (ln)” value is 11.2 ± 0.73.

Regarding “TTTTAATTTATTAATTGTACATGTATTTTAAGATTA [XGTACX_site8417]”, the “gcPBM binding intensity (ln)” value turned out to be 11 ± 0.63.

Take “TTATTATTAAAAAAAAGTACAGAATTGAATAATACA [XGTACX_site651]”: the “gcPBM binding intensity (ln)” value was 11.5 ± 0.95.

Turning to “TATTTTTATAAGTAAAAGGAGCACAGTTAAAGGATC [XGTACX_negctrl_site362]”, the “gcPBM binding intensity (ln)” value was 10.6 ± 0.47.

For the sequence “TATAAATAAAGATATACACACATATAAATATTTTTC [CACACA_site7798]”, the “gcPBM binding intensity (ln)” value was found to be 9.78 ± 0.099.

Turning to “TTGGTCTTTTAAAAAAGTACAAAAAAAAAAAAAAAA [XGTACX_site1665]”, the “gcPBM binding intensity (ln)” value came to 11.2 ± 1.

On to “TAGTATTAGATATATACACACATATATACCTATAGA [CACACA_site7083]”, for which the “gcPBM binding intensity (ln)” value was 9.795 ± 0.078.

For the sequence “GATAAATTAAGACACACACACATATATTTATTTATA [CACACA_site7789]”, the “gcPBM binding intensity (ln)” value turned out to be 10.1 ± 0.2.

Take AAAAAAGAACGCATAGTGCATATCTAAAAGATTTTT: the “gcPBM binding intensity (ln)” value worked out at 9.85 ± 0.014.

Take “TATAAAAAAATATTATAATATATATATATATATATA [XGTACX_negctrl_site41]”: the “gcPBM binding intensity (ln)” value amounted to 9.77 ± 0.45.

On to “AATATTTATATTTACACACACATAATACATCTATGT [CACACA_site4187]”, for which the “gcPBM binding intensity (ln)” value was 10 ± 0.014.

Regarding “TTACGATCATCAATATGTACATATATATATATATAT [XGTACX_site4301]”, the “gcPBM binding intensity (ln)” value turned out to be 11.1 ± 0.61.

As to “ATTTTTTTTTTTATAGTGGATCCACATTTGCCATTT [CACACA_negctrl_site1106]”, the “gcPBM binding intensity (ln)” value was found to be 10.4 ± 0.35.

In the case of “ATATATATATATATATGTACATACTATACAATAATT [XGTACX_site3546]”, the “gcPBM binding intensity (ln)” value came to 11.3 ± 0.48.

Turning to “ATTATTATTAAATACACACACATACCTCCATGTTAG [CACACA_site3430]”, the “gcPBM binding intensity (ln)” value is 10.1 ± 0.13.

The values are drawn from the supplement of paper PMC11417369.
